# Several values for one entry are separate records, joined by “and”; a condition that tells them apart may be missing. Identical values can stand only once. In all, about 350,000 compounds went through this assay and about 700 (0.2%) were called active. The call rests on the fitted dose curve; in most records, active means well fitted inhibition curve with a large enough effect; inconclusive means small, poorly fitted or top-dose-only effect; inactive means flat fitted curve, though single readings scatter. Only a part is listed here, and it is no random draw. A structure can be active in one record and inactive in another.
# Biological target: RecQ-like DNA helicase BLM (Homo sapiens) (UniProt P54132)
# Chain of UniProt P54132 (P54132 whole entry, looked up): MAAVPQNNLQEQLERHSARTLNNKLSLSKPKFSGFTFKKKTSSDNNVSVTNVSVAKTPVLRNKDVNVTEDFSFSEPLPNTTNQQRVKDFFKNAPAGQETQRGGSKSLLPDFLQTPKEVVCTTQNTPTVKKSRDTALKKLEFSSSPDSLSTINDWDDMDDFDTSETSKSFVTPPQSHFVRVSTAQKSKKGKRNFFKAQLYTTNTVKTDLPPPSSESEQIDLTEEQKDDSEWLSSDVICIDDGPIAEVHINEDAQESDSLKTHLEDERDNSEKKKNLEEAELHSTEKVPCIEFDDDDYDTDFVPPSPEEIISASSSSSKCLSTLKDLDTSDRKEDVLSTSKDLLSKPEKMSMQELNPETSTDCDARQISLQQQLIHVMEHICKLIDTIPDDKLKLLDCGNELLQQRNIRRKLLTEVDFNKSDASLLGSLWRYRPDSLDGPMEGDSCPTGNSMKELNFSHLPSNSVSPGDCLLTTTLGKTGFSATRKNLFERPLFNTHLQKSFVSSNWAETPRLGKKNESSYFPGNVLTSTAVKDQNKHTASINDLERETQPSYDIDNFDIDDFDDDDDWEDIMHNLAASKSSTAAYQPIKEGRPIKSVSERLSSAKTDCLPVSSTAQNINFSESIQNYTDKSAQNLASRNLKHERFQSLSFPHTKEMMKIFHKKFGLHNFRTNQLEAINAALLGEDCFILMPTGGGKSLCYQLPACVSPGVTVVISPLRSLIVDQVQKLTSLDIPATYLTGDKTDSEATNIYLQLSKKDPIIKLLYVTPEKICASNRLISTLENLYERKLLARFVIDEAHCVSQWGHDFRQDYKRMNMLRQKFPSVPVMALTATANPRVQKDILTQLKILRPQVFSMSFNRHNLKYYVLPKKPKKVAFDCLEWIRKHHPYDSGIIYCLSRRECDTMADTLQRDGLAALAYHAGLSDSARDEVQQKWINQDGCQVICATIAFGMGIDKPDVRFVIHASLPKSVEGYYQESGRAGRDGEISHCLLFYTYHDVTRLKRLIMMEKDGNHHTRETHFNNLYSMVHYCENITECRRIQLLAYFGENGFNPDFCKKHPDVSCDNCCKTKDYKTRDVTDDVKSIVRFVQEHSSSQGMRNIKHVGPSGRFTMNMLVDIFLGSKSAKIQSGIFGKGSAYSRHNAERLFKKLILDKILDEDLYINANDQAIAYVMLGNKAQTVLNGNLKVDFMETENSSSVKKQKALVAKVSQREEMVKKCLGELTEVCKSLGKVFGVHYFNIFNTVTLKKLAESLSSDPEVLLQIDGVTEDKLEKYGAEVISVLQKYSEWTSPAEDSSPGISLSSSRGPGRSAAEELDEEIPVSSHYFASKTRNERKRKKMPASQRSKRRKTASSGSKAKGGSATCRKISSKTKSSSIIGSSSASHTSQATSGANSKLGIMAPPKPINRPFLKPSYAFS
# Experiment: qHTS Assay for Inhibitors of Bloom's syndrome helicase (BLM); further: nearly all actives have a fitted effect of over 35% in size;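 on activity change, negative = inhibition: plate controls were vehicle for no effect and no enzyme for full effect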
# Settings: recombinant BLM DNA unwinding, fluorescence dequenching; series mostly up to 56.1 µM; activity change, negative = inhibition: at the top concentration
# Potency means the concentration at half of the fitted maximal effect.
Compound,Potency,"activity change, negative = inhibition"
O=C1C(=O)c2ccc(-c3ccccc3)cc2-c2ccccc21,active: 8.91 µM,
OCCN1CCN(CCCN2c3ccccc3C=Cc3ccccc32)CC1,,inactive: -12.7%
Cc1ccc(/C=C(\C#N)C(=O)Nc2cccc3ncccc23)o1,active: 7.94 µM,
Cc1ccc(/C(=C/CN2CCCC2)c2ccccn2)cc1,inactive,
O=C(O)CSc1cc(NS(=O)(=O)c2cccc([N+](=O)[O-])c2)c2ccccc2c1O,active: 17.8 µM,
NC[C@@H](O)c1ccc(O)c(O)c1,inactive and active: 12.6 µM,
Oc1cc2c(cc1O)CN(C(=S)NCCc1ccc(Cl)cc1)CCC2,,inactive: -8.28%
O=C1Cc2c([nH]c3ccc(Br)cc23)-c2ccccc2N1,,inactive: -4.04%
COc1ccc2c(c1)c(CC(=O)N1CCOCC1)c(C)n2C(=O)c1ccc(Cl)cc1,inactive,
COc1ccc2c3c([nH]c2c1)[C@@H]1C[C@@H]2[C@@H](C[C@H](O)[C@H](OC)[C@H]2C(=O)O)CN1CC3,,inactive: -0.55% [at 21.4 µM]
CC/C(=C(/c1ccccc1)c1ccc(OCCN(C)C)cc1)c1ccccc1,,inactive: -6.94%
Cc1cccc(-n2c(O)c(C=Nc3ccccc3O)c3ccccc3c2=O)n1,active: 15.8 µM,
C[C@]12C=CC(=O)C=C1CC[C@H]1[C@@H]3C[C@@H](O)[C@](O)(C(=O)CO)[C@@]3(C)C[C@H](O)[C@@]12F,,inactive: 0.363%
CCCCCCCC/C=C\CCCCCCCC(=O)NCCO,inactive,
COCCN=c1scc(-c2ccco2)n1/N=C/c1ccc(O)c(O)c1O,active: 10 µM,
CCOC(=O)c1c(C)[nH]c2c1-c1ccccc1C(=O)C2=O,active: 2.82 µM,
CC(C)NCC(O)c1ccc(O)c(O)c1 (stereo not drawn),inactive,
CC1CCC2C(=O)N3C(CCC(C)C3c3ccc(-c4ccco4)cc3)C(=O)N2C1c1ccc(-c2ccco2)cc1 (stereo not drawn),active: 3.55 µM,
CCCCCN(CCCCC)C(=O)C(CCC(=O)O)NC(=O)c1ccc(Cl)c(Cl)c1 (stereo not drawn),,inactive: 1.68%
COC(=O)c1c(C)[nH]c(C)c1C(=O)c1ccccc1Cc1ccccc1,,inactive: -10.2%
Cc1ccc(S(=O)(=O)/N=C2\C=C(Nc3cccc(C(=O)O)c3)C(=O)c3ccccc32)cc1,active: 20 µM,
CCCC1O[C@@H]2C[C@H]3[C@@H]4CCC5=CC(=O)C=C[C@]5(C)[C@H]4[C@@H](O)C[C@]3(C)[C@]2(C(=O)CO)O1 (stereo partly drawn),,inactive: -11.8%
CC[C@H](NC(=O)c1c(C)c(-c2ccccc2)nc2ccccc12)c1ccccc1,inactive,
COc1cc2nc(N3CCN(C(=O)[C@@H]4COc5ccccc5O4)CC3)nc(N)c2cc1OC,,inactive: -4.55%

Compound,Potency,"activity change, negative = inhibition"
CC1(C)C=C2C(=NN(c3ccccc3)C(N)=C2C#N)CO1,active: 17.8 µM,
NC(=NCCCCCCN=C(N)/N=C(\N)Nc1ccc(Cl)cc1)/N=C(\N)Nc1ccc(Cl)cc1,inactive,
CN=C(NC#N)Nc1ccc(C2=NNC(=O)CC2C)cc1 (stereo not drawn),,inactive: -1.37%
CN1CCc2c(sc(NC(=O)c3cc4cc([N+](=O)[O-])ccc4s3)c2C(N)=O)C1,active: 28.2 µM,
O=C1CN(/N=C/c2ccc(-c3ccc([N+](=O)[O-])cc3)o2)C(=O)N1,,inactive: 2.41%
C[C@@H](CN1c2ccccc2Sc2ccccc21)N(C)C,,inactive: 6.58% [at 21.4 µM]
COc1ccc2c(c1)Cc1sc(NC(=O)c3cccnc3)nc1-2,active: 17.8 µM,
c1coc(-c2nc(-c3ccco3)c(-c3ccco3)nc2-c2ccco2)c1,active: 14.1 µM,
C[C@]12C[C@H](O)[C@H]3[C@@H](CCC4=CC(=O)CC[C@@]43C)[C@@H]1CC[C@@H]2C(=O)CO,inactive,
C[C@@]12CC[C@@H]3c4ccc(O)cc4CC[C@H]3[C@H]1CC[C@H]2O,,inactive: -6.55% [at 21.4 µM]
O=C(C1CCCCC1)N1CC(=O)N2CCc3ccccc3[C@@H]2C1,,inactive: -0.529%
c1ccc(-c2ccccn2)nc1,,inactive: -3.54%
C=C[C@@]1(C)CC(=O)[C@]2(O)[C@@]3(C)[C@@H](O)CCC(C)(C)[C@@H]3[C@H](O)[C@H](OC(C)=O)[C@@]2(C)O1,,inactive: -2.57%
Cc1cc2nc3ccc(=[N+](C)C)cc-3sc2cc1N,active: 15.8 µM,
O=C(Cc1cccs1)N/N=C/C=C\c1ccco1,,inactive: -15.1%
N#Cc1cc2nc(O)c(O)nc2cc1[N+](=O)[O-],,inactive: 1.11%
COC(=O)[C@H](NC(=O)c1cc(-c2ccccc2)nc2ccccc12)c1ccccc1,,inactive: -1.97%
N[C@H](COP(=O)(O)O)C(=O)O,,inactive: -3.54%
N[C@H](Cc1c[nH]c2ccccc12)C(=O)O,,inactive: -6.1%
Cc1ccc(-n2cccc2/C=C2/C(=N)N3C(=NC2=O)SN=C3S(C)(=O)=O)cc1Cl,active: 28.2 µM,
C=CC(C)(C)c1[nH]c2ccccc2c1C1=C(O)C(=O)C(c2c[nH]c3c(CC=C(C)C)cccc23)=C(O)C1=O,active: 6.31 µM,
CNC1=C(Br)C(=O)c2ccncc2C1=O,active: 14.1 µM,
Cc1ccc(=O)n(-c2ccccc2)c1,,inactive: -3.29%
O=C(N/N=C/c1cccc(F)c1)c1cc(-c2ccco2)nc2ccccc12,active: 11.2 µM,

Compound,Potency,"activity change, negative = inhibition"
COc1cc2cc3c(N)c(C(=O)Nc4sc(C)c(C)c4C#N)sc3nc2cc1OC,active: 31.6 µM,
N[C@@H](Cc1cc(I)c(Oc2ccc(O)c(I)c2)c(I)c1)C(=O)O,inactive,
Nc1ncn([C@H]2O[C@@H](CO)[C@@H](O)[C@@H]2O)c(=O)n1,,inactive: -0.351% [at 21.4 µM]
O=C(O)C1CSC(c2ccco2)N1 (stereo not drawn),active: 25.1 µM,
Cn1cnc([N+](=O)[O-])c1Sc1ncnc2nc[nH]c12,inactive,
O=c1[nH]c2ccccc2n1CCCN1CCN(C(c2ccccc2)c2ccccc2)CC1,,inactive: -6%
Nc1nc(Cl)nc2c1ncn2[C@@H]1O[C@H](CO)[C@@H](O)[C@H]1O,inactive,
O=C(N/N=C/c1ccc([N+](=O)[O-])o1)c1cc2c(ccc3ccccc32)o1,active: 7.94 µM,
OCCN(CCO)c1nc(N2CCCCC2)c2nc(N(CCO)CCO)nc(N3CCCCC3)c2n1,inactive,
NS(=O)(=O)c1cc2c(cc1Cl)NC(C1CC3C=CC1C3)NS2(=O)=O (stereo not drawn),,inactive: 5.93%
O=c1oc2c(O)c(O)cc3c(=O)oc4c(O)c(O)cc1c4c23,active: 1.12 µM and active: 15.8 µM and active: 2 µM,
CC1=C/C(=C(/c2cc(C)c(O)c(Br)c2)c2ccccc2S(=O)(=O)O)C=C(Br)C1=O,,inactive: -28%
O=C(O)[C@@H]1C[C@H](C(=O)O)N1,,inactive: 3.37%
Cc1cn([C@H]2C=C[C@@H](CO)O2)c(=O)[nH]c1=O,inactive,
O[C@H](CN1CCN(c2cccc(Cl)c2)CC1)C(c1ccccc1)c1ccccc1,,inactive: -12.4%
CCCC[C@H](CC)CN=C(N)NC(N)=NCCCCCCN=C(N)NC(N)=NC[C@@H](CC)CCCC,,inactive: 55.1% [at 21.4 µM]
C=CCn1c(SCC(=O)N2CCOCC2)nc2scc(-c3ccco3)c2c1=O,active: 17.8 µM,
COc1cccc2c1C(=O)c1c(O)c3c(c(O)c1C2=O)C[C@@](O)(C(C)=O)C[C@@H]3O[C@H]1C[C@H](N)[C@H](O)[C@H](C)O1,active: 14.1 µM and active: 28.2 µM,
COC(=O)C1C(O)CC[C@@H]2CN3CCc4c([nH]c5ccccc45)C3C[C@@H]12 (stereo partly drawn),inactive,
COc1ccc(C(CC(=O)N2CCCC2)c2c(OC)cc(OC)c3c(-c4ccccc4)cc(=O)oc23)cc1 (stereo not drawn),,inactive: -29.3%
COC(=O)C1=C(C)NC(C)=C([N+](=O)[O-])[C@H]1c1ccccc1C(F)(F)F,,inactive: -6.18%
COc1ccc(N=C2NC(=O)/C(=C/c3ccco3)S2)cc1,,inactive: -19.1%
O=C(/C=C/c1ccccc1Cl)Nc1ccc2c(c1)C(=O)NC2=O,active: 31.6 µM,
NC(=O)c1ccc(N=C2C(=O)Nc3ccc([N+](=O)[O-])cc32)cc1,active: 31.6 µM,

Compound,Potency,"activity change, negative = inhibition"
O=C(/C=C/c1ccc(O)cc1)c1ccc(O)cc1O,inactive,
Cc1cc(C)c(S(=O)(=O)/N=C2/C=C(SCC(=O)O)C(=O)c3ccccc32)cc1C,active: 31.6 µM,
Nc1cc(=O)[nH]c(N)n1,,inactive: 2.16%
N[C@@H](Cc1c[nH]c2ccccc12)C(=O)O,,inactive: -1.08%
CCn1c(=O)[nH]c2cc(Cl)c(Cl)cc21,,inactive: -2.14%
Cc1cccc(N2CSC3=C(C#N)C(c4ccc(C)o4)CC(=O)N3C2)c1 (stereo not drawn),active: 14.1 µM,
CCCCCCCCCC(=O)N[C@H](CN1CCOCC1)[C@H](O)c1ccccc1,,inactive: -5.41%
CCCN(CCC)CCc1cccc2c1CC(=O)N2,,inactive: -6.12%
NC1CONC1=O (stereo not drawn),,inactive: -10.1%
Cc1[nH]c(=O)c(C#N)cc1-c1ccc2nccn2c1,,inactive: -7.83%
CC(=O)O[C@H]1C(=O)[C@@]2(C)[C@H]([C@H](OC(=O)c3ccccc3)[C@]3(O)C[C@H](OC(=O)[C@H](O)[C@@H](NC(=O)c4ccccc4)c4ccccc4)C(C)=C1C3(C)C)[C@]1(OC(C)=O)CO[C@@H]1C[C@@H]2O,inactive,
CSc1nc(NCCOCCO)c2sc3nc(-c4ccco4)c4c(c3c2n1)CCC4,active: 25.1 µM,
N#Cc1c(N2CCCC2)nc(N)c2c(N)nc(N3CCCC3)cc12,active: 2.82 µM,
CS(=O)(=O)N1CCN(c2ccc([N+](=O)[O-])c(NCc3ccc(Cl)cc3)c2)CC1,active: 15.8 µM,
C#C[C@]1(O)CC[C@@H]2[C@H]3CCC4=Cc5oncc5C[C@]4(C)[C@@H]3CC[C@@]21C,,inactive: 1.43% [at 21.4 µM]
CC1(C)S[C@@H]2[C@H](NC(=O)[C@H](N)c3ccccc3)C(=O)N2[C@H]1C(=O)O,inactive,
NC(Cc1cc(I)c(Oc2ccc(O)c(I)c2)c(I)c1)C(=O)O (stereo not drawn),,inactive: 3.23%
Oc1ccc(-c2nc(-c3ccc(F)cc3)c(-c3ccncc3)[nH]2)cc1,,inactive: -5.63%
O=C1c2c(O)cc(O)cc2O[C@H](c2ccc(O)c(O)c2)[C@@H]1O,,inactive: -8.43%
CCOC(=O)c1cnc2c(cnn2CC)c1NN=C(C)C,,inactive: -1.32%
O=c1cc(-c2ccc(O)cc2)oc2c(O)c(O)c(O)c(O)c12,active: 10 µM,

# — PubChem BioAssay AID2528 (National Center for Advancing Translational Sciences (NCATS), 2010)
